# Whole data set: some 33,000 sequences, median “E-score (-0.5 to 0.5)” near -0.011, cut for the highest 2% near 0.28. This is one part of the list.
# Target: T1, Gcr1 (UniProt P07261)
# T1 sequence: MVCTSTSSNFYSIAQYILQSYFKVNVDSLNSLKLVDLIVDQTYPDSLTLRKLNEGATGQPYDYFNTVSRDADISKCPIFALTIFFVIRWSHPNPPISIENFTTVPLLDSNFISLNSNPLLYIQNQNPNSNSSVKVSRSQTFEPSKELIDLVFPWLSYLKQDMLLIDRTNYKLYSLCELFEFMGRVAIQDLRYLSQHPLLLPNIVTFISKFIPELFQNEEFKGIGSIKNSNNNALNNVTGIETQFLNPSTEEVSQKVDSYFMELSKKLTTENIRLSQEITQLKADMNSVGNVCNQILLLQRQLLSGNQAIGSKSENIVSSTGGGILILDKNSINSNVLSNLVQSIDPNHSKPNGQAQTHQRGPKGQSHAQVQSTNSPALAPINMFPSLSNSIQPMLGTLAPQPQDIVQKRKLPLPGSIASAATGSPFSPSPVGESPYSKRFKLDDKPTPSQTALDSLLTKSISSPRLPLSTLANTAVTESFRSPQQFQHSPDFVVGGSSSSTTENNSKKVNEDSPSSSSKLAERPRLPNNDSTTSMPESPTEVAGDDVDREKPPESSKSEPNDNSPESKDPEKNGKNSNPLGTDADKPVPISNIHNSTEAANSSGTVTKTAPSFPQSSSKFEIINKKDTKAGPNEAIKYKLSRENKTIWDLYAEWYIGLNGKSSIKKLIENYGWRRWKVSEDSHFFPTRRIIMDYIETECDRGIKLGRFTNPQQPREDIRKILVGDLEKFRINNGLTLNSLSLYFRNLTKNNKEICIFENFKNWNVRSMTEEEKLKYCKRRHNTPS
# Test: PBM E-score (8-mer binding enrichment) (E-score (-0.5 to 0.5)); higher = stronger / more preferred TF binding; most listed sequences are background and not binding sites
# Details: protein concentration: 100 nM; construct: GST-full length
# In short: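 Universal all-10-mer Agilent arrays, fresh or stripped once, were converted to double-stranded form by primer extension. GST-tagged yeast transcription factors from PURExpress in vitro transcription/translation, full-length or DNA-binding domain only, were applied at about 100-200 nM and detected with fluorescent anti-GST. After masliner normalisation, the Universal PBM Analysis Suite scored each ungapped eight-base word together with its reverse complement by E-score.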
row,Sequence,PBM E-score
1,AGAAATCG,-0.0525
2,GACTCATA,-0.142
3,CTGATACC,0.168
4,GTCCAGCA,-0.0714
5,AGTCTCGA,-0.114
6,CTTCTCCC,-0.0881
7,CAGTGTAA,-0.102
8,GACAAAGA,-0.0165
9,GGCACAAA,0.0185
10,CACGAGCG,-0.173
11,GGACCCAC,0.201
12,AGACCATC,-0.17
13,GAGGATGA,-0.0555
14,CAGGTCTA,-0.117
15,CCGGTCTA,-0.276
16,AACCATTA,0.0636
17,AGGAGCTC,-0.0587
18,AGCTCCGG,0.117
19,CTACGACC,-0.152
20,CACTCCTC,0.0608
21,ATACACCG,-0.0484
22,ATATTATA,0.138
23,ACGGAAGA,0.0748
24,CTAGACCA,-0.051
25,CTGGTCAA,0.0775

row,Sequence,PBM E-score
1,CCGTACCG,-0.258
2,ATTTAGAA,0.19
3,AAGCGGCC,0.123
4,CGGCCTGA,0.00578
5,ACTTCGGA,0.102
6,AGAAAGCG,-0.0791
7,CCCTATGC,-0.136
8,CCTAAGGA,0.0409
9,AGGCGACT,-0.0624
10,AAGAGTAA,-0.0445
11,ACTTACAA,0.126
12,AACCGTAT,-0.0776
13,ATTCCTCG,-0.0652
14,CAACACCG,-0.111
15,CTATAGTC,-0.176
16,ATGGGTAA,0.062
17,GTGGCAAC,0.235
18,CTTACTCC,-0.226
19,ACTCCCCA,0.0542
20,CGTAATCA,-0.151
21,AGTGTCTA,-0.153
22,CCGCCCCA,0.154
23,CTCCGCCC,-0.196
24,CCTTCGTC,-0.0715
25,GCAGAGTA,-0.0213

row,Sequence,PBM E-score
1,GAGTATTA,-0.0678
2,AATAGCGG,0.143
3,AGCGTAGC,-0.0409
4,GAGATTGC,-0.261
5,AAGCTGAC,0.0829
6,CCGGCATC,0.38
7,CCTGTGAC,-0.0507
8,ATTGAAGG,-0.188
9,CAAACGGC,-0.0434
10,CCCTCTAC,-0.191
11,AATGATTC,-0.139
12,AGCCCGCA,0.225
13,ACCTGAGA,-0.038
14,CCGAACCA,-0.0651
15,TCGGAGCA,-0.322
16,AAATGCCG,0.0711
17,AAAAGGAC,0.0425
18,AACCACTG,0.0775
19,GAGCCCGA,0.0537
20,ACCGCAGT,-0.0982
21,ACCGACCC,-0.177
22,AAATTTGA,-0.0347
23,CTTACAAG,-0.0531
24,GTACTGAC,-0.0166
25,ACATACCT,-0.21

row,Sequence,PBM E-score
1,GCGATTCC,0.0997
2,AACTACGG,-0.0925
3,CGATCTTC,-0.0371
4,CAGCCCAG,-0.143
5,AGGAGGTC,-0.113
6,AACGCTCT,-0.107
7,CCCCGTTA,-0.0362
8,TATAGGGA,-0.00691
9,CGGATCCG,0.212
10,GGCCCTAA,0.128
11,AGATGGTC,-0.0165
12,CAGAGTCA,-0.0175
13,TATTCCCA,-0.0395
14,GAGACTAA,-0.0955
15,CTAGTCAG,0.141
16,GCCGCGGA,0.045
17,GCGGGTCA,-0.0549
18,AGCCGTTA,0.0667
19,CGGGCAGC,0.309
20,CACCCGCG,-0.119
21,CAAAAGAG,0.0266
22,AATCGGCA,0.0526
23,ACTTTCGA,-0.0806
24,GCGTACGC,-0.0345
25,AAAAGTTA,0.165

row,Sequence,PBM E-score
1,GGCAGTGA,-0.113
2,CACCGGCC,-0.0639
3,GGGCAGAC,-0.167
4,CTCACTGA,-0.0627
5,ATATTTGG,0.206
6,GACTACGC,-0.0868
7,ACTATCCG,-0.0823
8,CTCCGGAA,0.225
9,AATTCAAC,0.0448
10,CGATGGAC,-0.0892
11,AAAGGTAA,0.063
12,ATAACAAG,0.0537
13,TCTTTCCA,0.128
14,CCAGCCCG,-0.137
15,CCTACAGG,-0.0829
16,CACTAAAA,0.219
17,CGTTAAAC,0.0113
18,CCCTTAGC,-0.0669
19,AGGGAAAC,0.101
20,ATGGAACA,-0.0319
21,AGAGGTAA,-0.196
22,GATCCGAA,0.116
23,TATGATCA,0.0371
24,AATCCCGT,0.169
25,TCGTAACA,0.0684

row,Sequence,PBM E-score
1,GATGTAAA,-0.00476
2,GGCCGCAC,-0.162
3,AGGATCTA,0.0568
4,GGAAAAGA,-0.0294
5,ATTACGGA,0.0799
6,AAAACGTG,-0.0965
7,AAGATCGG,0.0628
8,GCGGTAAC,-0.12
9,ACTCAGGA,0.228
10,GCCGCGCA,-0.0483
11,AGAATGGG,0.119
12,AAACGGTC,-0.0468
13,CCTATGGC,-0.105
14,AACGAAGA,0.211
15,CTCCTTGC,-0.169
16,GGCCGAAA,-0.0486
17,CAATGCGG,-0.031
18,AAGTATAG,0.0716
19,CCTAGTTC,0.172
20,ACTCAGGG,-0.0431
21,CGAGCGCG,-0.157
22,CACTAGGG,0.0189
23,GGACACAC,0.00943
24,AGTACAAC,-0.111
25,CTGCTCCA,-0.124

row,Sequence,PBM E-score
1,TCGTCGAA,-0.183
2,AGCTTTTG,-0.0171
3,GTTCTAGA,0.217
4,CACACCAA,-0.0636
5,GCCACCAA,0.0222
6,ATGTCATA,0.106
7,ATTGCGAG,-0.214
8,AATCGACA,0.13
9,TCTGGGAA,0.00186
10,AGCTACCT,0.183
11,ACTCGTCG,-0.288
12,TATTTTCA,0.168
13,GAGTCTTA,-0.226
14,GGTCTCCA,0.156
15,AATTACGA,0.108
16,CCTTGACG,-0.00826
17,AATGAAGA,-0.0467
18,GGCCCGCA,-0.0485
19,CCTTCCAG,0.0686
20,AGATGCCA,0.385
21,ATGCGAAA,0.107
22,CTTATCTA,0.159

# — the supplement of paper PMC3334620
